# Measured values as given in a collection of fitness landscapes (doi:10.1126/science.1257360).
# The list shows a part of the results.
# B1: PhoQ; a variant is named by its letters at X, in order, P23837 (parent)
# chain: MKKLLRLFFPLSLRVRFLLATAAVVLVLSLAYGMVALIGYSVSFDKTTFRLLRGESNLFYTLAKWENNKLHVELPENIDKQSPTMTLIYDENGQLLWAQRDVPWLMKMIQPDWLKSNGFHEIEADVNDTSLLLSGDHSIQQQLQEVREDDDDAEMTHSVAVNVYPATSRMPKLTIVVVDTIPVELKSSYMVWSWFIYVLSANLLLVIPLLWVAAWWSLRPIEALAKEVRELEEHNRELLNPATTRELTSLVRNLNRLLKSERERYDKYRTTLTDLTHSLKTPLXXLQXXLRSLRSEKMSVSDAEPVMLEQISRISQQIGYYLHRASMRGGTLLSRELHPVAPLLDNLTSALNKVYQRKGVNISLDISPEISFVGEQNDFVEVMGNVLDNACKYCLEFVEISARQTDEHLYIVVEDDGPGIPLSKREVIFDRGQRVDTLRPGQGVGLAVAREITEQYEGKIVAGESMLGGARMEVIFGRQHSAPKDE
# Variants of: B1
# Assay: enrichment ratio after two sorts for PhoP signalling (ratio (wild type AVST 3.29)); higher = more functional
# Conditions: with PhoP (E. coli)
row,Variant,enrichment ratio
1,QDSA,≤ 0.25
2,QCSH,9.17
3,NWPH,≤ 0.25
4,VETC,≤ 0.25
5,ECHW,≤ 0.25
6,IACP,≤ 0.25
7,VTDA,≤ 0.25
8,GMVH,≤ 0.25
9,IIYA,≤ 0.25
10,ISAH,≤ 0.25
11,LERQ,≤ 0.25
12,ERAT,≤ 0.25
13,TTWF,2.06
14,SLKI,0.521
15,VNQR,≤ 0.25
16,FTGN,≤ 0.25
17,QSWR,≤ 0.25
18,HYHQ,≤ 0.25
19,GCMV,≤ 0.25
20,YQYF,≤ 0.25
21,GWTF,≤ 0.25
22,KRDT,≤ 0.25
23,HSGW,2.07
24,FAQT,≤ 0.25

row,Variant,enrichment ratio
1,HMSG,≤ 0.25
2,NDLD,≤ 0.25
3,PPCL,≤ 0.25
4,LMRS,≤ 0.25
5,LNIV,≤ 0.25
6,KPCS,≤ 0.25
7,YCDH,≤ 0.25
8,YDVK,≤ 0.25
9,VVNW,≤ 0.25
10,SVSM,13.3
11,TLQL,13
12,NHIQ,≤ 0.25
13,TRMW,≤ 0.25
14,FDHE,≤ 0.25
15,YQFV,≤ 0.25
16,IWIC,≤ 0.25
17,TCTP,0.8
18,RQAM,≤ 0.25
19,GDIG,≤ 0.25
20,LANY,≤ 0.25
21,VPPE,≤ 0.25
22,MFEE,≤ 0.25
23,HSEP,≤ 0.25
24,YHTM,≤ 0.25

row,Variant,enrichment ratio
1,TAQL,8.71
2,ALAK,0.502
3,MIRS,≤ 0.25
4,RSNI,≤ 0.25
5,IFVA,≤ 0.25
6,NKEC,≤ 0.25
7,IYKR,≤ 0.25
8,KCAF,≤ 0.25
9,SCSH,6.66
10,IPDE,≤ 0.25
11,QYKH,≤ 0.25
12,SHWD,≤ 0.25
13,MNFE,≤ 0.25
14,MRWY,≤ 0.25
15,KQHP,≤ 0.25
16,IAVT,≤ 0.25
17,VMWN,≤ 0.25
18,PAEW,≤ 0.25
19,HGFW,0.903
20,KERC,≤ 0.25
21,TCTG,20
22,SWEK,≤ 0.25
23,NFFW,≤ 0.25
24,ALIC,≤ 0.25

row,Variant,enrichment ratio
1,WESG,≤ 0.25
2,WYVK,≤ 0.25
3,IARY,≤ 0.25
4,DWIS,≤ 0.25
5,PVER,≤ 0.25
6,AMRC,≤ 0.25
7,DWKT,≤ 0.25
8,DYLV,≤ 0.25
9,LDYQ,≤ 0.25
10,SCEG,≤ 0.25
11,MADR,≤ 0.25
12,GIGP,≤ 0.25
13,FAVH,≤ 0.25
14,IAVL,≤ 0.25
15,GGMM,≤ 0.25
16,FQRC,≤ 0.25
17,HQSH,≤ 0.25
18,LTPM,≤ 0.25
19,TPHW,≤ 0.25
20,HKNQ,≤ 0.25
21,MRNI,≤ 0.25
22,NDLS,≤ 0.25
23,DRNM,≤ 0.25
24,PEKP,≤ 0.25

row,Variant,enrichment ratio
1,PTME,≤ 0.25
2,KLKI,≤ 0.25
3,FDMR,≤ 0.25
4,VSTE,≤ 0.25
5,GSWT,≤ 0.25
6,QDCC,≤ 0.25
7,VLMP,≤ 0.25
8,PLII,≤ 0.25
9,FTCG,≤ 0.25
10,FSIS,0.291
11,TSDS,0.648
12,DREM,≤ 0.25
13,HTRL,≤ 0.25
14,TPVQ,≤ 0.25
15,GCTD,≤ 0.25
16,QHQI,≤ 0.25
17,EKLP,≤ 0.25
18,PYKH,≤ 0.25
19,NKHI,≤ 0.25
20,HCGP,≤ 0.25
21,WYPI,≤ 0.25
22,SPTL,≤ 0.25
23,SCFK,≤ 0.25
24,VHYG,≤ 0.25

row,Variant,enrichment ratio
1,FMVE,≤ 0.25
2,HRAP,≤ 0.25
3,ANPG,≤ 0.25
4,CFHF,≤ 0.25
5,HCIS,≤ 0.25
6,TRED,≤ 0.25
7,SEHV,≤ 0.25
8,YHKD,≤ 0.25
9,RFEP,≤ 0.25
10,RRCT,≤ 0.25
11,IHRS,≤ 0.25
12,TADS,≤ 0.25
13,IKPD,3.42
14,HPHK,≤ 0.25
15,KANH,≤ 0.25
16,FQYD,≤ 0.25
17,NQTF,≤ 0.25
18,PMLW,≤ 0.25
19,NGNN,≤ 0.25
20,SINH,6.28
21,KTTL,≤ 0.25
22,QGPR,≤ 0.25
23,PAAY,≤ 0.25
24,ALGI,≤ 0.25

row,Variant,enrichment ratio
1,SNFF,≤ 0.25
2,GKTK,≤ 0.25
3,LAMQ,≤ 0.25
4,TNTM,31.2
5,ICVK,≤ 0.25
6,AYHD,≤ 0.25
7,YGHR,≤ 0.25
8,STGE,0.755
9,AAMK,35.5
10,RSDA,≤ 0.25
11,AGIC,3.1
12,NPCI,≤ 0.25
13,DKMV,≤ 0.25
14,KGWI,≤ 0.25
15,TKPS,≤ 0.25
16,RQAA,≤ 0.25
17,DHYI,≤ 0.25
18,MMAM,≤ 0.25
19,SNYI,0.257
20,WCHP,≤ 0.25
21,LHTD,≤ 0.25
22,YAPY,≤ 0.25
23,QLRY,≤ 0.25
24,QECR,≤ 0.25

row,Variant,enrichment ratio
1,PKLE,≤ 0.25
2,GYQE,≤ 0.25
3,EGMK,≤ 0.25
4,PQHN,≤ 0.25
5,VHSC,≤ 0.25
6,QLAW,≤ 0.25
7,FAIA,≤ 0.25
8,TQGI,8.61
9,MVCL,4.31
10,QSIL,≤ 0.25
11,FDRF,≤ 0.25
12,PNFK,≤ 0.25
13,NMPA,≤ 0.25
14,RCRK,≤ 0.25
15,QAPR,≤ 0.25
16,SAPF,≤ 0.25
17,HTTA,≤ 0.25
18,MKPV,≤ 0.25
19,PCKD,≤ 0.25
20,NYSA,≤ 0.25
21,TCDV,≤ 0.25
22,SIFP,≤ 0.25
23,DLGN,≤ 0.25
24,SRHW,≤ 0.25

row,Variant,enrichment ratio
1,GTPY,≤ 0.25
2,GIMM,17.3
3,YKEP,≤ 0.25
4,WVRP,≤ 0.25
5,YRAI,≤ 0.25
6,EYLY,≤ 0.25
7,RFLE,≤ 0.25
8,QWFM,≤ 0.25
9,FWFH,≤ 0.25
10,NKGR,≤ 0.25
11,LNMP,≤ 0.25
12,KRFP,≤ 0.25
13,DQDA,≤ 0.25
14,KQDS,≤ 0.25
15,VRKT,≤ 0.25
16,QKSQ,≤ 0.25
17,SFNC,≤ 0.25
18,RIDL,≤ 0.25
19,TDMT,10.8
20,YVFD,≤ 0.25
21,MRIM,≤ 0.25
22,LEWW,≤ 0.25
23,KILC,≤ 0.25
24,ERQQ,≤ 0.25

row,Variant,enrichment ratio
1,VHHA,≤ 0.25
2,WFDC,≤ 0.25
3,EVHE,≤ 0.25
4,LEDI,≤ 0.25
5,MNEF,≤ 0.25
6,CITP,≤ 0.25
7,AWIF,≤ 0.25
8,HDNA,≤ 0.25
9,IFGK,≤ 0.25
10,NQEP,≤ 0.25
11,DYSQ,≤ 0.25
12,VKKN,≤ 0.25
13,WIGS,≤ 0.25
14,PHCY,≤ 0.25
15,ECFQ,≤ 0.25
16,GAIW,≤ 0.25
17,FEMH,≤ 0.25
18,EVSK,≤ 0.25
19,STGV,13.4
20,GFHR,≤ 0.25
21,ERDV,≤ 0.25
22,MPDR,≤ 0.25
23,WQYY,≤ 0.25
24,QDNI,≤ 0.25

row,Variant,enrichment ratio
1,QVWM,6.65
2,EQHE,≤ 0.25
3,QESH,2
4,SMVY,6.01
5,CNSL,≤ 0.25
6,PIQC,≤ 0.25
7,FAPR,≤ 0.25
8,ASEI,≤ 0.25
9,QVPM,≤ 0.25
10,IFQE,≤ 0.25
11,VVYD,≤ 0.25
12,NKVS,≤ 0.25
13,PLGA,≤ 0.25
14,EVTK,≤ 0.25
15,DVGV,≤ 0.25
16,APQG,≤ 0.25
17,PSCE,≤ 0.25
18,IPQQ,≤ 0.25
19,DREY,≤ 0.25
20,TDYY,≤ 0.25
21,VDWW,≤ 0.25
22,FFRR,≤ 0.25
23,KMFA,≤ 0.25
24,YDHY,≤ 0.25

row,Variant,enrichment ratio
1,KTHM,≤ 0.25
2,VWRP,≤ 0.25
3,ALLT,0.993
4,DPSW,≤ 0.25
5,ITWD,≤ 0.25
6,GKAR,≤ 0.25
7,RNDF,≤ 0.25
8,WSTG,≤ 0.25
9,APVP,≤ 0.25
10,LRHL,≤ 0.25
11,GAID,≤ 0.25
12,MKNT,≤ 0.25
13,KDDD,≤ 0.25
14,WENQ,≤ 0.25
15,YISR,≤ 0.25
16,THQI,24.1
17,YNMW,≤ 0.25
18,IEDG,≤ 0.25
19,IRKV,≤ 0.25
20,KQIG,≤ 0.25
21,DQIV,≤ 0.25
22,SMVP,≤ 0.25
23,YLNL,≤ 0.25
24,YIYM,≤ 0.25

row,Variant,enrichment ratio
1,YRQS,≤ 0.25
2,RCWV,≤ 0.25
3,NNEM,≤ 0.25
4,KCWM,≤ 0.25
5,HGVD,≤ 0.25
6,LYNW,≤ 0.25
7,IGQL,≤ 0.25
8,THYY,≤ 0.25
9,GPMM,≤ 0.25
10,PDYP,≤ 0.25
11,AYRW,≤ 0.25
12,ENHG,≤ 0.25
13,KLPG,≤ 0.25
14,ANWG,≤ 0.25
15,DCGI,≤ 0.25
16,MSDY,≤ 0.25
17,KRPS,≤ 0.25
18,AACF,7.35
